Test results published in PubChem BioAssay AID1745853 (National Center for Advancing Translational Sciences (NCATS), 2022).
The list shows a part of the results. The main result of the screen is listed elsewhere. These columns were measured beside it and carry no call.

Columns and labels:
Experiment in all cases: Primary Screen for Target Class Profiling of Small Molecule Inhibitors of Methyltransferases
[1] = molecular target: Glycine N-methyltransferase (Homo sapiens) (UniProt Q14749); conditions: purified enzyme, MTase-Glo SAH luminescence; measured here: GNMT inhibition; at 40 µM; stronger effect = lower value
Outline: (§1)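 Each enzyme was reacted with SAM and its substrate, with compounds tested once at 40 uM; SAH formed was read by MTase-Glo luminescence.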

[2] = molecular target: Guanidinoacetate N-methyltransferase (Homo sapiens) (UniProt Q14353); conditions: purified enzyme, MTase-Glo SAH luminescence; measured here: GAMT inhibition; at 40 µM; stronger effect = lower value
Outline: as §1

[3] = molecular target: Histamine N-methyltransferase (Homo sapiens) (UniProt P50135); conditions: purified enzyme, MTase-Glo SAH luminescence; measured here: HNMT inhibition; at 40 µM; stronger effect = lower value
Outline: as §1

[4] = molecular target: Nicotinamide N-methyltransferase (Homo sapiens) (UniProt P40261); conditions: purified enzyme, MTase-Glo SAH luminescence; measured here: NNMT inhibition; at 40 µM; stronger effect = lower value
Outline: as §1

[5] = molecular target: Phenylethanolamine N-methyltransferase (Homo sapiens) (UniProt P11086); conditions: purified enzyme, MTase-Glo SAH luminescence; measured here: PNMT inhibition; at 40 µM; stronger effect = lower value
Outline: as §1
On the % scale 0 is the no-effect control and ±100 the full control effect.

Row | Compound | activity change, negative = inhibition [1] | activity change, negative = inhibition [2] | activity change, negative = inhibition [3] | activity change, negative = inhibition [4] | activity change, negative = inhibition [5]
1 | Cc1ccc(Cn2c(=O)c3ccccc3n3c(CCC(=O)NC4CCC(C)CC4)nnc23)cc1 (stereo not given) | -10.1% | -1.31% | -6.12% | -8.89% | -10.3%
2 | C=C1C(=O)O[C@@H]2C[C@H](C)C3=CC(=O)[C@H](O)[C@@]3(C)C[C@H]12 | -0.893% | -10.3% | 7.41% | -22.1% | 0.734%
3 | COc1ccc(CCNC(=O)c2cc3n(n2)CC(C)(C(=O)NCc2ccc(F)cc2)N(C)C3=O)c(OC)c1 (stereo not given) | -2.02% | 0.715% | -9.02% | -0.508% | -0.353%
4 | CCOc1ccc2c(n1)CCN(C(=O)C1(c3ccccc3)CC1)C2 | -15.4% | -5.88% | -7.16% | -35.8% | -7.26%
5 | Cc1ccc(CN2C(=O)c3cnn(-c4ccccc4)c3-n3cccc3C2C(=O)NC2CCCCCC2)cc1 (stereo not given) | -2.4% | 0.42% | 4.21% | 4.98% | 4.63%
6 | CC(C)CCNC(=O)C1(C)Cn2nc(C(=O)NCCN3CCCCC3)cc2C(=O)N1C (stereo not given) | 5.69% | 0.584% | 2.16% | 6.67% | 2.6%
7 | CCCn1c(=O)c2ccccc2n2c(SCc3ccc(Cl)cc3)nnc12 | -9.21% | 0% | -0.101% | -12.2% | 2.86%
8 | Cc1ccc(CN2C(=O)c3cc4occc4n3CC2(C)C(=O)NC2CCCCCC2)cc1 (stereo not given) | -8.59% | 2.93% | -2.12% | -7.06% | -3.31%
9 | COc1ccccc1CNC(=O)C1c2c(n(C)c3ccccc23)SCC(=O)N1c1ccc(F)cc1F (stereo not given) | 10.6% | 0.769% | 5.75% | 0.402% | 8.41%
10 | COc1ccc(-c2cc3n(n2)CC(C)(C(=O)NC2CCCCC2)N(c2cccc(Cl)c2)C3=O)cc1 (stereo not given) | 0.679% | 5.52% | -0.178% | -1.63% | -5.93%
11 | COc1ccc(-c2cc3n(n2)CC(C)(C(=O)NCc2ccccc2)N(Cc2ccc(N(C)C)cc2)C3=O)cc1 (stereo not given) | 1.92% | 5.77% | -0.842% | 2.83% | -3.4%
12 | Cn1c(=O)c2ccc(C(=O)NC3CCCC3)cc2n2c(SCC(=O)Nc3cccc(Cl)c3)nnc12 | -4.81% | -0.61% | 2.15% | -4.42% | 1.33%
13 | CCc1cc2c(cc3n2CC(C(=O)NC2CCCCCCC2)(c2ccccc2)N(Cc2ccccc2)C3=O)s1 (stereo not given) | 4.83% | 5.24% | 6.13% | -10.3% | -2.86%
14 | O=C1NC2(CCCN(C(=O)c3ccc(F)cc3)C2)Oc2ccccc21 (stereo not given) | -9.26% | -7.72% | 0.019% | -11.7% | -7.88%
15 | COc1cccc2cc(-c3nc(C4CCC(C(=O)O)CC4)n4ncnc(N)c34)[nH]c12 (stereo not given) | -0.385% | 0.127% | 4.75% | -16% | -1.42%
16 | CC(=O)OCC(=O)[C@@]1(O)[C@H](C)C[C@H]2[C@@H]3CCC4=CC(=O)C=C[C@]4(C)[C@@]3(F)[C@@H](O)C[C@@]21C | -3.25% | 0.86% | 5.34% | -14.9% | 1.88%
17 | CCCC1(c2ccccc2)NC(=O)N(CC(=O)N(C)Cc2c(F)cccc2Cl)C1=O (stereo not given) | -11.4% | -17.9% | -10.1% | -20.5% | -25%
18 | COc1ccc(OC)c(CNC(=O)c2cccc3c2CCN3C(=O)c2ccc(F)cc2)c1 | -4.79% | -7.31% | -4.21% | -10.3% | -5.85%
19 | O=C(Nc1ccccc1F)N1CC(Oc2ccc(-c3noc(-c4ccccc4)n3)cc2)C1 | -1.5% | -4.18% | -1.88% | -2.24% | -1.59%
20 | CCc1cc2c(cc3n2CC(C)(C(=O)NC2CCCCC2)N(CCc2ccc(Cl)cc2)C3=O)s1 (stereo not given) | -5.21% | 4.51% | -6.51% | -4.18% | -6.9%
21 | CCC1Oc2ccc(NC(=O)CC(C)(C)C)cc2CN(Cc2ccccc2F)C1=O (stereo not given) | -7.95% | -5.74% | -3.59% | -16.6% | 2.73%
22 | O=C(CCc1nnc2n(Cc3ccccc3Cl)c(=O)c3ccccc3n12)NCc1ccc2c(c1)OCO2 | 6.45% | 0.67% | 4% | 1.17% | -2.05%
23 | O=C(NCCc1ccccc1)Nc1cccn2ncnc12 | -5.2% | -2.45% | -5.53% | -3.65% | -44.7%
24 | O=C(C1CCCN1C(=O)c1ccccc1)N1CCC(c2ccccc2)CC1 (stereo not given) | -2.52% | -1.46% | 0.841% | 0.075% | 1.74%
25 | Cc1ccc(CN2C(=O)c3nc4ccccc4n3CC2(C)C(=O)NCCC(C)C)cc1 (stereo not given) | -3.48% | 0% | 2.33% | 6.92% | 4.24%
26 | CC(=O)O[C@@H]1C[C@]2(C)[C@@]3(CCC4[C@@]5(C)CC[C@H](O[C@@H]6O[C@H](C(=O)O)[C@@H](O)[C@H](OC7OC(CO)C(O)C(O)[C@H]7O[C@@H]7O[C@@H](C)[C@H](O)[C@@H](O)[C@H]7O[C@@H]7OC[C@](O)(CO)[C@H]7O)[C@H]6OC6OC(CO)C(O)C(O)C6O)C(C)(C)C5CC[C@]42C)OC[C@@]12CCC(C)(C)CC23 (stereo not given in full) | 1.15% | 1.65% | 9.93% | -9.64% | -5.7%
27 | COc1ccc([C@H]2C[C@@H](O)[C@@H](O)[C@@H]2NS(=O)(=O)c2ccc(Cl)cc2)cc1 | -9.12% | -8.86% | -4.89% | -5.92% | -3.32%
28 | COc1cccc(N2CCN(C(=O)c3noc(-c4ccc(C)cc4)n3)CC2)c1 | -4.34% | 1.31% | -1.43% | -5.14% | -1.84%
